# Test results as given in PubChem BioAssay AID1240 (Sanford-Burnham Center for Chemical Genomics, 2008).
# About 800 (1.6%) of roughly 50,000 compounds showed an effect of 50% or more. The list shows a part of the results.
# Target: Bcl-2-like protein 10 (Homo sapiens) (UniProt Q9HD36)
# Experiment: Phenotype converters, Bcl-B/TR3 peptide binding displacement, primary biochemical FP (AID 1240);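 further: 0% = Bcl-B with tracer peptide and DMSO and 100% = tracer peptide lacking Bcl-B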
# Details: GST-Bcl-B / FITC-TR3 peptide fluorescence polarization; stronger effect = higher value; compound at 3.75 mg/L
# UniProt Q9HD36, sequence (Q9HD36 whole entry, looked up): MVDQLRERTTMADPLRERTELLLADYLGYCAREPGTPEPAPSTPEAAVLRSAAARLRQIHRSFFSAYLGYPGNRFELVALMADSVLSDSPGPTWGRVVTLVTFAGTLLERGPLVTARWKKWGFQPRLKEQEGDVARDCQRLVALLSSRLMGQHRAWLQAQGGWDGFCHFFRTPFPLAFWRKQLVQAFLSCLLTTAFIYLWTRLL
row,Structure (SMILES),displacement [%]
1,CC(=O)N1CC23C=CC(CC2CC12CCCCCC2)O3 (stereo not given),-0.8
2,CCOC(=O)c1c(-c2ccc(Br)cc2)csc1NC(=O)c1cccc([N+](=O)[O-])c1,-2.7
3,CC(C)c1ccc(-c2nc(N)c3c(=O)oc4ccccc4c3n2)cc1,9.8
4,COc1cc(C=C2C(=O)N(C)C(=O)N(C)C2=O)ccc1OCCOc1ccc([N+](=O)[O-])cc1,26.1
5,N#Cc1c(-c2ccc(Cl)cc2)n(Cc2ccccc2)c(=O)n(Cc2ccccc2)c1=O,-0.7
6,CCN(CC)CCCCOc1ccccc1[N+](=O)[O-],6.3
7,COc1cc(/C=N/N=C2/NC(=O)C(CC(=O)Nc3ccccc3F)S2)ccc1O (stereo not given),-0.7
8,C=CCc1cccc(/C=N/Nc2nc(-c3cc4cc(OC)ccc4oc3=O)cs2)c1O,-17.5
9,O=C(O)CCC(=O)N(CCc1ccccc1)C1CC(=O)N(c2ccc(Cl)cc2)C1=O (stereo not given),-5.5
10,Nc1nonc1-c1nc2ccccc2n1CC(=O)Nc1ccc(F)cc1F,-1.9
11,O=C1C2C3C=CC(C2C(=O)N1C1CCCCC1)C1C(=O)N(C2CCCCC2)C(=O)C31 (stereo not given),-6
12,Fc1ccc(C2=NCCn3cccc32)cc1,1.2
13,Cc1cc(C)c2nc3s/c(=C\c4ccc(-c5ccccc5C(=O)O)o4)c(=O)n3c2c1,-16
14,O=C(Cn1cc(/C=C2/C(=O)NC(=O)N(c3cccc(F)c3)C2=O)c2ccccc21)Nc1ccccc1,116
15,COc1ccc(C(=O)N2CCN(C3CCCC3)CC2)cc1OC,-4.6
16,C/C(O)=C(/C(=O)Nc1ccccc1[N+](=O)[O-])c1ccccc1,10.4
17,COc1ccc(CNC(=O)c2ccc(Cl)cc2)cc1,-7.3
18,CCOc1ccc(C(=O)Nc2cccc(NC(=O)c3ccc(F)cc3)c2)cc1,13.3
19,Cc1cc(C)nc(SCC(=O)N/N=C/c2c(Cl)cccc2Cl)n1,13.3
20,CC(COCCc1nnc(NC(=O)c2ccccc2)s1)OCCc1nnc(NC(=O)c2ccccc2)s1 (stereo not given),15.5
21,COc1ccc(/C=C(\NC(=O)c2ccccc2)C(=O)NN)c(OC)c1,-11.2
22,Cc1ccc(/C=C2\SC(=Nc3ccc(F)cc3)NC2=O)o1,101
23,O=C1S/C(=C\c2cccc(Cl)c2Cl)C(=O)N1c1ccccc1,9.6
24,CCCC(=O)N1CCN(c2cc(N3CCCCC3)c(F)cc2[N+](=O)[O-])CC1,-12
25,COc1ccccc1CNC(=O)C(=O)Nc1cccc(Cl)c1,5.2
26,CC(NC(=O)OC(C)(C)C)C(=O)Oc1cc2oc(=O)cc(-c3ccccc3)c2cc1Cl (stereo not given),-0.9
27,CCCN1C(=O)/C(=C2\SC(=S)N(CCC(=O)O)C2=O)c2ccccc21,5.3

row,Structure (SMILES),displacement [%]
1,Cc1sc(NC(=O)COc2ccc(Cl)cc2Cl)c(C#N)c1C,-21.8
2,COc1ccc(NC(=O)c2c(-c3c(Cl)cccc3Cl)noc2C)c([N+](=O)[O-])c1,11.5
3,CC(=O)Nc1ccc(N2C(=O)/C(=C/c3ccc([N+](=O)[O-])cc3)C=C2c2ccccc2)cc1,13.7
4,Fc1ccc(OCCn2ccnc2)cc1,3.4
5,COCCN1C(=O)C(=O)/C(=C(/O)c2ccccc2)C1c1ccc(OC)cc1 (stereo not given),-5.6
6,O=C1NC(=O)N(c2cccc(Br)c2)C(=O)/C1=C/c1ccc(Oc2ccc([N+](=O)[O-])cn2)cc1,11.7
7,Cc1ccccc1C(=O)Nc1ccc([N+](=O)[O-])cn1,8.3
8,C=CCN1C(=O)NC(=O)/C(=C\c2ccccc2OCc2ccc([N+](=O)[O-])cc2)C1=O,9.4
9,Cc1nn(S(=O)(=O)c2ccccc2[N+](=O)[O-])c(C)c1Sc1ccc([N+](=O)[O-])cc1,2.5
10,O=C(NCCNc1ccc(Cl)cc1[N+](=O)[O-])C(c1ccccc1)c1ccccc1,-35.2
11,CCC(C)c1ccccc1OCCn1cc(/C=C2/SC(=S)NC2=O)c2ccccc21 (stereo not given),128
12,O=C(Nc1ccc(Cl)c(-c2nc3ccccc3[nH]2)c1)c1cc2ccccc2o1,-16
13,COc1ccc(C2NC(=O)NC(C)=C2C(=O)Nc2ccc(Cl)cc2)c(OC)c1 (stereo not given),-5.3
14,N/C(=N\OC(=O)c1cccc(F)c1)c1cccnc1,0.7
15,CN(CCN(C)/N=C/c1cc([N+](=O)[O-])ccc1O)/N=C/c1cc([N+](=O)[O-])ccc1O,8
16,CN(C)c1ccc(C(=O)c2ccccc2C(=O)O)c(O)c1,11
17,O=C(O)c1c(-c2ccccc2)oc2ccc(OCc3ccccc3)cc12,5.4
18,COc1ccc(C(=O)NNC(=O)c2cccc(C(=O)NNC(=O)c3ccc(OC)c(OC)c3)c2)cc1OC,3.3
19,CCOC(=O)c1c(NC(=O)c2ccc3c(c2)OCO3)sc(C(=O)Nc2ccccc2F)c1C,6
20,CCOC(=O)c1c(NC(=O)C2C3CCC(O3)C2C(=O)O)sc2c1CCC(CC)C2 (stereo not given),3
21,CC1=C(C(=O)OC(C)C)C(c2ccc(C)c([N+](=O)[O-])c2)C2=C(CCCC2=O)N1 (stereo not given),-5.2
22,C=CCc1c(C)nc2cc(-c3ccc(I)cc3)[nH]n2c1=O,-7.4
23,O=C(c1ccc([N+](=O)[O-])cc1)N1CCN(C2CC3CCC2C3)CC1 (stereo not given),-12
24,O=C(Cc1ccccc1)NC(NC(=O)Cc1ccccc1)c1cccc([N+](=O)[O-])c1,3.5
25,CCOC(=O)c1c(N)sc(C(=O)N2CCCC2)c1C,5.9
26,COc1ccc(-c2nn(-c3ccccc3)cc2/C=c2\sc3nc(-c4ccc(Cl)cc4)nn3c2=O)cc1,21.9
27,N/C(=N\OC(=O)COc1ccc(Br)cc1)c1ccc(Cl)cc1,1.8

row,Structure (SMILES),displacement [%]
1,CCc1c(C)c2ccc(OCC(=O)c3ccccc3)cc2oc1=O,-0.3
2,Cc1ccc(NC2C=CS(=O)(=O)C2)cc1C (stereo not given),6.7
3,CCOC(=O)c1ccc(N2NC(=O)/C(=C/c3cccc(I)c3)C2=O)cc1,13
4,Cc1cccc(C)c1NC(=O)COc1ccc2ccccc2c1,-2.5
5,CCOc1ccc(C(=O)COC(=O)c2ccccc2I)cc1,-1.1
6,CC1CCCN(c2c([N+](=O)[O-])c(=O)oc3ccccc23)C1 (stereo not given),14.7
7,Nc1nc2nonc2nc1Nc1ccccc1,4.9
8,O=C(NN1CCOCC1)c1ccc(-c2ccccc2)cc1,5.1
9,Cc1ccccc1OCC(=O)Nc1ccc(Nc2ccccc2)cc1,1.1
10,CCOC(=O)c1ccc(NC(=O)c2ccc([N+](=O)[O-])cc2Cl)cc1,-10
11,Cc1ccc(C(O)(C(=O)N=c2ccccn2O)c2ccc(C)cc2)cc1,-31.7
12,O=C(Nc1ccccn1)c1cc(-c2ccccc2)nc2ccccc12,-2.3
13,Cc1ccc(OCC(=O)Nc2ccc(Cl)c(Cl)c2)c(Br)c1,10.6
14,c1csc(-c2csc(-c3nc(-c4cccs4)cs3)n2)c1,-6.1
15,CC1=NN(c2ccc(C(=O)O)cc2)C(=O)/C1=C\c1ccco1,-8.7
16,O=C(COc1ccccc1)NC1CCCCCCC1,-6.5
17,Cc1onc(-c2c(F)cccc2Cl)c1C(=O)N(C)C1CCS(=O)(=O)C1 (stereo not given),0.5
18,O=C(NNC(=S)Nc1ccccc1)c1cc(-c2ccccc2)nc2ccccc12,-20.9
19,Cn1c(COc2ccc(Cl)cc2)n[nH]c1=S,-12.6
20,Cc1cccc(CC2S/C(=N/N=C/c3ccco3)N(c3ccccc3)C2=O)c1 (stereo not given),11.1
21,NC(=O)c1ccccc1NC(=O)c1cccc(F)c1,-2.1
22,Cc1c(-c2ccccc2)[n+](=O)c2c(n1[O-])CCCCC2,-4.1
23,O=C(O)CCC(=O)Nc1ccc(NC(=O)c2ccccc2)c(Cl)c1,-5.2
24,CCc1cc2c(=O)c(-c3nc4ccccc4s3)coc2c(CN(C)C)c1O,-15
25,O=C(CCN1C(=O)c2ccccc2C1=O)Nc1ccccc1C(=O)N1CCCC1,7.8
26,CCN(CC)C(=O)CSc1nc(O)cc(=O)[nH]1,2.5
27,CC(C)CCNC(=O)c1ccccc1[N+](=O)[O-],10.9

row,Structure (SMILES),displacement [%]
1,Cc1ccc(NC2=NC3(CCCC3)N=C(N)N2)c(C)c1,-7.7
2,CCOc1ccc(N2C(=O)C3ON(c4ccccc4)C(c4ccc(SC)cc4)C3C2=O)cc1 (stereo not given),12.4
3,O=C(Nc1cccc(C(F)(F)F)c1)c1ccc([N+](=O)[O-])o1,-7.7
4,O=S(=O)(Nc1ccc(-c2nc3ccccc3s2)c(O)c1)c1ccccc1,-3.2
5,CCN(CC)c1ccc(/C=C2\C(=O)NC(=O)N(C)C2=O)cc1,0.5
6,COc1ccccc1N1CCN(/N=C/c2ccc(Cl)c([N+](=O)[O-])c2)CC1,12.9
7,O=C(COc1ccccc1)N1CCc2ccccc2C1,-5.2
8,COc1ccc(C2CC(=O)C3=C(C2)Nc2ccccc2NC3c2ccc(OC(F)(F)F)cc2)cc1 (stereo not given),7.4
9,O=C1Nc2ccc(S(=O)(=O)NNc3ccc([N+](=O)[O-])cc3)c3cccc1c23,-0.4
10,Cc1ccc(C2=NN(C(=N)SC3CC(=O)N(c4ccccc4F)C3=O)C(c3ccc(Br)cc3)C2)cc1 (stereo not given),-12.6
11,Cc1cc(OCC(=O)Nc2ccc3c(c2)OCO3)ccc1Br,-0.6
12,COc1ccc(N2C(=O)CSC2c2ccccc2F)cc1 (stereo not given),-12.8
13,Cc1cc(NC(=O)c2ccc(Cl)c(Cl)c2)ccc1NC(=O)c1ccccc1,4.7
14,CC(C)Oc1ccc(C(=O)N2CCC(Cc3ccccc3)CC2)cc1,-7.7
15,COc1ccccc1/C=N/N=C1/NC(=O)C(CC(=O)Nc2cccc(C)c2C)S1 (stereo not given),11.2
16,CCOc1cc(C2C(C(=O)OCC3CCCO3)=C(C)NC3=C2C(=O)CCC3)cc([N+](=O)[O-])c1O (stereo not given),-10.6
17,CC/C(O)=C1/C(=O)CC(C)(C)CC1=Nc1ccncc1,-11.1
18,O=C(CSC1=NCCS1)OCN1C(=O)c2ccccc2C1=O,6.9
19,O=C(NCCCN1CCOCC1)c1cc([N+](=O)[O-])cc([N+](=O)[O-])c1,-1.7
20,CCN(CC)c1ccc(C=C(C#N)C#N)c(OC)c1,91.5
21,CC(C)OC(=O)C(C)Nc1n[nH]c(=S)[nH]c1=O (stereo not given),11.6
22,Cc1cccc(CC2CC(=O)N(c3ccc4ccccc4n3)C2=O)c1 (stereo not given),9
23,COc1cccc(OCCCOc2ccc(C)c(C)c2)c1,0.1
24,O=C1c2ccccc2C(=O)N1Cc1nc2ccccc2c(=O)n1Cc1ccccc1,-0.4
